Literature values in PMC11006913.
Where a chain is given by its changes, count along the chain named. This is one part of the list.

Key:
Conditions in all cases: PBM; conditions not shown; double strand, one strand shown; scale: upbm affinity estimate (log intensity, higher = more binding, comparable within an allelic series)
[1] = biological target: ARX P353L (Homo sapiens) (UniProt Q96QS3)
[2] = biological target: ARX (Homo sapiens) (UniProt Q96QS3)
[3] = biological target: ARX L343Q (Homo sapiens) (UniProt Q96QS3)
[4] = biological target: ARX P353R (Homo sapiens) (UniProt Q96QS3)
[5] = biological target: ARX R332H (Homo sapiens) (UniProt Q96QS3)
[6] = biological target: T1, HESX1 E149K (Homo sapiens) (UniProt Q9UBX0)
T1 sequence: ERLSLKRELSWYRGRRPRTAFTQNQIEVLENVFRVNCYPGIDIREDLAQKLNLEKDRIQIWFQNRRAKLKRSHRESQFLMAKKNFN

[7] = biological target: T2, HESX1 N125S (Homo sapiens) (UniProt Q9UBX0)
T2 sequence: T1 sequence with N31S, K55E

[8] = biological target: T3, HESX1 R160C (Homo sapiens) (UniProt Q9UBX0)
T3 sequence: T1 sequence with K55E, R66C

[9] = biological target: ISX (Homo sapiens) (UniProt Q2M1V0)
[10] = biological target: ISX R83Q (Homo sapiens) (UniProt Q2M1V0)
[11] = biological target: PROP1 R112Q (Homo sapiens) (UniProt O75360)
[12] = biological target: PROP1 R99Q (Homo sapiens) (UniProt O75360)
[13] = biological target: ARX T333N (Homo sapiens) (UniProt Q96QS3)
[14] = biological target: PITX2 L100Q (Homo sapiens) (UniProt Q99697)
[15] = biological target: PITX2 R108H (Homo sapiens) (UniProt Q99697)
[16] = biological target: PITX2 R130W (Homo sapiens) (UniProt Q99697)
[17] = biological target: PITX2 T114P (Homo sapiens) (UniProt Q99697)

## ACTCGTTA [8-mer ACTCGTTA]
[1]
  binding signal: 11.5

## GGAATTAC [8-mer GGAATTAC]
[2]
  binding signal: 11.7
[3]
  binding signal: 10.8
[4]
  binding signal: 10.7
[5]
  binding signal: 10.9

## CCTAACGA [8-mer CCTAACGA]
[1]
  binding signal: 11.3

## CTAATCGA [8-mer CTAATCGA]
[1]
  binding signal: 12.1

## GAAATTTA [8-mer GAAATTTA]
[2]
  binding signal: 11.2
[3]
  binding signal: 10.6
[4]
  binding signal: 10.7
[5]
  binding signal: 10.6

## CAATTACA [8-mer CAATTACA]
[1]
  binding signal: 12.2
[6]
  binding signal: 11.5
[7]
  binding signal: 11.4
[8]
  binding signal: 10.4
[9]
  binding signal: 14.7
[10]
  binding signal: 13.1
[11]
  binding signal: 12.7
[12]
  binding signal: 12.2

## ATGTATAG [8-mer ATGTATAG]
[2]
  binding signal: 11.1
[13]
  binding signal: 11

## AAGATTAC [8-mer AAGATTAC]
[2]
  binding signal: 11.1
[3]
  binding signal: 10.6
[4]
  binding signal: 10.6
[5]
  binding signal: 10.6
[13]
  binding signal: 10.7

## CCTCATTA [8-mer CCTCATTA]
[1]
  binding signal: 12.4

## GGGTAATA [8-mer GGGTAATA]
[2]
  binding signal: 11.4
[3]
  binding signal: 10.6
[4]
  binding signal: 10.6
[5]
  binding signal: 10.7

## GCTAATGA [8-mer GCTAATGA]
[1]
  binding signal: 12.3

## AAATTGTA [8-mer AAATTGTA]
[2]
  binding signal: 11.3
[3]
  binding signal: 10.8
[4]
  binding signal: 10.7
[13]
  binding signal: 11.1

## TAATGCTA [8-mer TAATGCTA]
[2]
  binding signal: 11.3
[3]
  binding signal: 10.8
[4]
  binding signal: 10.7
[5]
  binding signal: 10.8

## AGGATTAT [8-mer AGGATTAT]
[2]
  binding signal: 11.2
[3]
  binding signal: 10.6
[4]
  binding signal: 10.6
[5]
  binding signal: 10.7
[14]
  binding signal: 11.4
[15]
  binding signal: 9.57
[16]
  binding signal: 8.6
[17]
  binding signal: 9.97

## AATATAGC [8-mer AATATAGC]
[2]
  binding signal: 11.1
[4]
  binding signal: 10.6

## GTAATCGA [8-mer GTAATCGA]
[1]
  binding signal: 11.7

## GATAACGA [8-mer GATAACGA]
[1]
  binding signal: 11.5

## GAATAATA [8-mer GAATAATA]
[2]
  binding signal: 11.4
[3]
  binding signal: 10.7
[4]
  binding signal: 10.7
[5]
  binding signal: 10.8
[13]
  binding signal: 11.2

## GGTAGTTA [8-mer GGTAGTTA]
[2]
  binding signal: 11
[1]
  binding signal: 11
[4]
  binding signal: 10.6

## GCTCATTA [8-mer GCTCATTA]
[1]
  binding signal: 12.3

## TAATGAGA [8-mer TAATGAGA]
[1]
  binding signal: 12.3

## TAACTAAA [8-mer TAACTAAA]
[2]
  binding signal: 11.2
[3]
  binding signal: 10.6
[4]
  binding signal: 10.6
[5]
  binding signal: 10.6

## ATAACTTG [8-mer ATAACTTG]
[2]
  binding signal: 11.3
[13]
  binding signal: 11.1

## GTCGATTA [8-mer GTCGATTA]
[1]
  binding signal: 12

## GACAATTA [8-mer GACAATTA]
[1]
  binding signal: 12.2
[6]
  binding signal: 11.6
[7]
  binding signal: 11.8
[8]
  binding signal: 10.3
[9]
  binding signal: 14.7
[10]
  binding signal: 13.4
[11]
  binding signal: 12.7
[12]
  binding signal: 12.2

## GATCGTTA [8-mer GATCGTTA]
[1]
  binding signal: 11.4

## GGTGTTAA [8-mer GGTGTTAA]
[2]
  binding signal: 11.2
[3]
  binding signal: 10.6
[5]
  binding signal: 10.6

## AAATTTAA [8-mer AAATTTAA]
[2]
  binding signal: 11.5
[3]
  binding signal: 10.5
[4]
  binding signal: 10.6
[5]
  binding signal: 10.6

## ATTATAAA [8-mer ATTATAAA]
[2]
  binding signal: 11.7
[3]
  binding signal: 10.5
[4]
  binding signal: 10.6
[5]
  binding signal: 10.6

## ACTAATGA [8-mer ACTAATGA]
[1]
  binding signal: 12.4

## CTAATGAG [8-mer CTAATGAG]
[1]
  binding signal: 12.6

## CATACTTA [8-mer CATACTTA]
[2]
  binding signal: 11.2
[1]
  binding signal: 11.1
[13]
  binding signal: 11

## AATACAAG [8-mer AATACAAG]
[2]
  binding signal: 11.2
[13]
  binding signal: 11

## CATATGAA [8-mer CATATGAA]
[2]
  binding signal: 10.8
[13]
  binding signal: 10.9

## AATCACAG [8-mer AATCACAG]
[2]
  binding signal: 11.1
[3]
  binding signal: 10.7
[4]
  binding signal: 10.7
[11]
  binding signal: 11.7

## AATCAAGA [8-mer AATCAAGA]
[2]
  binding signal: 11.4
[3]
  binding signal: 10.6
[4]
  binding signal: 10.6
[5]
  binding signal: 10.8

## AGCGCCAT [8-mer AGCGCCAT]
[6]
  binding signal: 10
[7]
  binding signal: 7.73
[8]
  binding signal: 10.2
